Reference: publication PMC6919601, “Identification of Plasmodium dipeptidyl aminopeptidase allosteric inhibitors by high throughput screening” (PLoS ONE, 2019)
Several values for one entry are separate records, joined by “and”; a condition that tells them apart may be missing. Equal entries are not always repeated. The campaign covered roughly 110,000 compounds. About 230 (0.21%) showed an effect of 50% or more. Some of the results follow.

Target: DPAP1 (Plasmodium falciparum, UniProt Q8IIJ9)
Assay: primary screen, percent inhibition; read by cleavage of a fluorogenic dipeptide substrate; higher = more effect of the substance
Design: species or system P. falciparum D10 trophozoite lysates; single well
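Also: 30 min substrate incubation versus DMSO and 10 µM JCP410 controls.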

Sequence of DPAP1 (Q8IIJ9 whole entry, looked up): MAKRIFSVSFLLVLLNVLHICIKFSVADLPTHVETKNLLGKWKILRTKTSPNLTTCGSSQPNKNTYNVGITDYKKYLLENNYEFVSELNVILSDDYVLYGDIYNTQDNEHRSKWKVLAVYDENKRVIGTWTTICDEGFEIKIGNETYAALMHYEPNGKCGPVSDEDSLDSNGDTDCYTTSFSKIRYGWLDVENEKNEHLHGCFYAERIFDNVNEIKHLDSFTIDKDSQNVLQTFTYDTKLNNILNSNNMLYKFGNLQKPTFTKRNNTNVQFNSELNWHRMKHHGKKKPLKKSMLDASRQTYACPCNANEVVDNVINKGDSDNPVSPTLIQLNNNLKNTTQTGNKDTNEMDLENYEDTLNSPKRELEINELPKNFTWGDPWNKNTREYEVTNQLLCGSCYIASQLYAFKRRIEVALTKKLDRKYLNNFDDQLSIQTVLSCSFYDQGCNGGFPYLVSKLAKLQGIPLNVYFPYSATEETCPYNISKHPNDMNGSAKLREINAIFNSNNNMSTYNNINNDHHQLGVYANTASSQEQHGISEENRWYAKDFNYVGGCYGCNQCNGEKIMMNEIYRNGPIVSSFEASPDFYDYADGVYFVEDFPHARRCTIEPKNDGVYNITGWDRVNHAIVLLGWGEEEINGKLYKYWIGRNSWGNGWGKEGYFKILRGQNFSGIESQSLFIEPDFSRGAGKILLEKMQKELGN

In order of falling “% Inhibition @ 10 uM” value:
1. Cc1ccc(NC(=O)c2c(N)sc3c2CCCC3)cc1C  27.9%
2. COc1ccc(C(=O)Nc2ccc(S(=O)(=O)N3CCC(C)CC3)cc2)cc1OC  21.2%
3. CSc1ccc(CN2CCN(Cc3ccccc3Cl)CC2)cc1  10%
4. Cc1nnc(N2CCC(C(=O)NC(C)(C)C)CC2)c2nn(-c3ccc(Cl)cc3)c(C)c12  9.2%
5. CC(C)COC(=O)N1CC(O)CC1C(=O)Nc1ccc(C23C[C@H]4C[C@@H](C2)C[C@@H](C3)C4)cc1 (some centres unmarked)  9.19%
6. CC(=O)ONc1ccc(NC=C2C(=O)N(C)C(=O)N(C)C2=O)cc1  8.6%
7. CCOC(=O)c1cc(-c2ccc(OC)cc2)nc2ccccc12  8.6%
8. CCOc1ccccc1C1C(C(=O)N2CCOCC2)=C(C)Nc2nc3ccccc3n21 (centres unmarked)  7.83%
9. COc1cccc2c1cc1c(=O)n(CC(=O)N3CCN(c4ncccn4)CC3)nc(C)n12  6.35%
10. Cc1ccc2c(c1)[C@H]1OCC[C@H]1[C@@H](c1cccs1)N2  5.99%
11. COc1ccc(C2CC(=O)OC3=C2C(=O)c2ccccc2C3=O)c(OC)c1 (centres unmarked)  5.93%
12. COc1ccc(OC)c(NC(C)C)c1  5.92%
13. CN(Cc1ccco1)C(=O)Nc1cn(C)c(=O)c2ccccc12  5.62%
14. CC1CCCCN1C(=O)c1ccccc1Cl (centres unmarked)  5.43%
15. CCC/N=c1\c(NS(=O)(=O)c2ccc(CC(C)C)cc2)c(O)oc2ccccc12  5.41%
16. COc1ccc(Cl)cc1C(=O)Nc1nnc(C(C)C)s1  5.12%
17. CC(C)=C(C#N)n1cnc2ccccc21  4.41%
18. c1cncc(CNc2ncnc3c2nc2n3CCCCC2)c1  3.96%
19. CCCNC(=O)c1ccc(CN2CC(=O)N3CCCCC3C2=O)cc1 (centres unmarked)  3.95%
20. O=C(NCc1ccc2c(c1)OCO2)c1cccc(F)c1  3.79%
21. Cc1cc(C)cc(NC(=O)C2C3C=CC(O3)C2C(=O)O)c1 (centres unmarked)  3.69%
22. Cn1c(C(=O)O)c(CNCc2ccco2)c2ccccc21  3.54%
23. O=C(Nc1cccc2c1CCCC2)c1ccccc1F  3.53%
24. CCCCn1ncc(O)c(OC)c1=O  3.48%
25. CCOc1ccc(-c2nc(Cn3c(=O)cc(C)c4c(C)nn(-c5cccc(F)c5)c43)c(C)o2)cc1  3.47%
26. Cc1cc(Br)ccc1OCC(=O)Nc1ccc(S(=O)(=O)Nc2ccc(F)cc2)cc1  3.35%
27. O=C(Cc1ccccc1[N+](=O)[O-])c1ccccc1  3.34%
28. Cc1ccccc1NC(=O)c1ccc(C(=O)Nc2ccccc2C)cc1  3.33%
29. Cc1ccc(-n2ncc3c(NC(C)(C)C)ncnc32)c(C)c1  2.72%
30. N#CCCNCc1ccccc1  2.4%
31. COc1ccc(OC)c(NS(=O)(=O)c2ccc(F)cc2)c1  2.22%
32. Cc1ccc(CS(=O)(=O)Cc2ccc(C(=O)NCCCN3CCOCC3)o2)cc1  2.18%
33. CCCCNC(=O)C1CCCNC1=O (centres unmarked)  2.03%
34. COc1ccc(-c2cc(-c3ccc(Cl)cc3)n3ncnc3n2)cc1OC  1.97%
35. COc1ccccc1CC(=N)NOC(=O)COc1ccc(C(C)(C)C)cc1  1.96%
36. O=C1CC(c2ccccc2)C(C(=O)O)N1 (centres unmarked)  1.8%
37. Cc1cc(N2CCOCC2)nc(N2CCOCC2)n1  1.31%
38. O=C(/C=C/c1ccccc1)Nc1cccc([N+](=O)[O-])c1  1.29%
39. O=S(=O)(c1ccc(Cl)cc1Br)N1CCCCC1  1.13%
40. CNC(=S)C12CC3CC(CC(Cl)(C3)C1)C2  1.12%
41. C=CCOc1c(Cl)cc(CNc2ccc3[nH]c(O)nc3c2)cc1OC  0.907%
42. CCOc1ccccc1NC(=O)Cc1cccc2ccccc12  0.843%
43. O=C(c1ccc2nc(-c3ccccc3)c(-c3ccccc3)nc2c1)N1CCOCC1  0.775%
44. Cc1[nH]c2ccccc2c1C1CCN(S(=O)(=O)c2ccc(C(C)(C)C)cc2)CC1  0.66%
45. COCCNC(=O)CS(=O)(=O)Cc1nc(-c2ccccc2Cl)oc1C  0.44%
46. Cc1cc(C(F)F)n2nc(C(=O)Nc3ccc(Cl)c(C(F)(F)F)c3)nc2n1  0.431%
47. Cc1cccn2c(=O)c(/C=C(\C#N)C(=O)N3CCOCC3)c(Oc3ccccc3Cl)nc12  0.315%
48. CCc1ccc(OCC(=O)N(Cc2nc(-c3ccccc3)no2)C(C)C)c(Br)c1  0.232%
49. CCC(C)c1c(O)nc(S)nc1O (centres unmarked)  0.0792%
50. CCOC(=O)C1CCCN(Cc2ccccc2Br)C1 (centres unmarked)  -0.192%
51. COc1ccccc1/C=C1\N=C(c2ccc(C)cc2)OC1=O  -0.441%
52. CC(=O)N/C(=C/c1ccccc1Br)C(=O)NC1CCCCCC1  -0.469%
53. CCNC(=O)c1ccc2c(c1)c(C)c(C)n2Cc1ccc(F)cc1  -0.48%
54. O=C(COc1ccc(Cl)cc1Cl)NC1CCS(=O)(=O)C1 (centres unmarked)  -0.48%
55. Cc1ccc(C(=O)Nc2sc3c(c2C#N)CC(C)(C)NC3(C)C)cc1  -0.941%
56. CS(=O)(=O)N(CC(=O)N1CCCCC1)c1cc(Cl)cc(Cl)c1  -1.12%
57. Cc1ccccc1C(=O)Nc1cccc(Cl)c1Cl  -1.22%
58. Cc1cc2c(cc1C)C(c1ccsc1)CC(=O)N2 (centres unmarked)  -1.28%
59. O=C(CSc1ccc(Cl)cc1)NCCCN1CCOCC1  -1.42%
60. CC(C)(C)OC(=O)N[C@@H](Cc1ccccc1)C(=O)NCC#N  -1.83%
61. COc1ccc(C(=O)N2CC(C)N(C(=O)c3ccc(OC)c(OC)c3)CC2C)cc1OC (centres unmarked)  -1.95%
62. Cc1ccccc1-c1nc2c(c(SCc3ccncc3)n1)Cc1c(CO)cnc(C)c1O2  -1.97%
63. CCc1nn(CC(=O)N2CCCCC2C)c(=O)c2cc3occc3n12 (centres unmarked)  -2%
64. CC(C)(C)NS(=O)(=O)c1ccc(NC(=O)c2ccc(Br)cc2)cc1  -2.03%
65. CCOC(=O)N1CCN(C(=O)C2c3cc(OC)c(OC)cc3C(=O)N(C)C2c2cccnc2)CC1 (centres unmarked)  -2.12%
66. O=C(NCC1CCCO1)c1cnn2c1NC(c1ccc(Br)cc1)CC2C(F)(F)F (centres unmarked)  -2.53%
67. COc1ccc(OC2CCN(S(=O)(=O)c3cccc(S(=O)(=O)N4CCOCC4)c3)CC2)cc1  -2.84%
68. CCOc1ccc(-c2cc(C(=O)NCC3CCCO3)c3ccccc3n2)cc1 (centres unmarked)  -2.84%
69. C=CCOc1ccc(C(=O)N(Cc2ccc(C)o2)C2CCS(=O)(=O)C2)cc1 (centres unmarked)  -2.85%
70. Cc1cc(N2CCOCC2)ccc1/C=C1\S/C(=N/c2ccc(N3CCOCC3)cc2)N(C)C1=O  -3.04%
71. O=[N+]([O-])c1ccccc1S(=O)(=O)N1CCCCC1  -3.62%
72. CCc1ccc(C2CC(=O)N=C(NC(=O)c3cc(OC)c(OC)c(OC)c3)N2)cc1 (centres unmarked)  -3.62%
73. Cc1ccc(-c2nc(CN(C)C)cc(CN(C)C)c2O)cc1  -3.65%
74. COc1ccc(OC)c(CN2CCN(c3ccccc3F)CC2)c1  -3.65%
75. C=CCc1cccc2cc(C(=O)N3CCCCC3)c(=O)oc12  -3.79%
76. Cc1ccc(C(=O)NCC2CCCO2)cc1 (centres unmarked)  -3.94%
77. Cc1nn(-c2ccccc2)c2c1N(CC(=O)NCCCN1CCc3ccccc3C1)C(=O)CS2  -3.98%
78. Cc1ccc(C)n1-c1nnc(N2CCC(C(=O)N3CCC4(CC3)OCCO4)CC2)s1  -4.15%
79. O=C(Nc1ccccc1C(=O)N1CCCCC1)c1cccs1  -4.39%
80. COc1ccc(CN2C(=O)c3cccnc3C2=O)cc1S(=O)(=O)NC(c1cccs1)C(C)C (centres unmarked)  -5.09%
81. O=c1oc(-c2ccccc2)nc2cc3ccccc3cc12  -5.2%
82. CCC(=O)Nc1ncc2c(n1)CC(c1ccc(C(C)(C)C)cc1)CC2=O (centres unmarked)  -5.23%
83. CC(C)CC(C(=O)Nc1cccc(O)c1)N1C(=O)c2ccccc2C1=O (centres unmarked)  -5.38%
84. CN1CCN(Cc2c(Cl)cccc2Cl)CC1  -5.42%
85. COC(=O)c1sc(NS(=O)(=O)c2cccc3nsnc23)c(C(=O)OC)c1C  -5.57%
86. O=C1CC(N2CCN(c3ccc(F)cc3)CC2)C(=O)N1c1cccc(C(F)(F)F)c1 (centres unmarked)  -5.67%
87. CCn1c(C(=O)O)c(CNC2CCCCCCC2)c2ccc(OC)cc21  -5.68%
88. COc1ccc(S(=O)(=O)Nc2cccc(-c3cn4cccc(C)c4n3)c2)cc1C  -5.81%
89. COc1ccc(C=C2C(=O)NC(=O)NC2=O)cc1[N+](=O)[O-]  -5.94%
90. CN(Cc1ccccc1)C(=O)c1cc(-c2ccc3c(c2)OCO3)on1  -6.45%
91. CN(C1CCCCC1)S(=O)(=O)N1CCCC(C(=O)NCCc2cccs2)C1 (centres unmarked)  -6.93%
92. CN1C(=O)C(=CNCC2CCNCC2)C(=O)N(C)C1=O  -7.09%
93. Cc1cc(C)nc(SCC(=O)Nc2cc(Cl)cc(Cl)c2)n1  -7.14%
94. CS(=O)(=O)N(CCc1ccccc1)CC(=O)N1CCN(c2ccccc2F)CC1  -7.17%
95. CN(C1CCCCC1)S(=O)(=O)N1CCCC(C(=O)N2CCN(c3ncccn3)CC2)C1 (centres unmarked)  -7.21%
96. COc1ccc(Br)cc1CNC(=O)C(C)n1ncn2cccc2c1=O (centres unmarked)  -8.43%
97. CCC(=O)c1c(O)oc2ccccc2c1=O  -8.86%
98. CCCCN1C(=O)c2[nH]nc(-c3ccccc3O)c2C1c1cc(OC)c(OC)c(OC)c1 (centres unmarked)  -9.07%
99. CN(C)CCNC(=O)COc1ccc(Cl)cc1  -14.9%

For `Cc1cc(C)nc(SCCN2CCCCC2)n1`, the “% Inhibition @ 10 uM” value was -0.267% and 6.6%.
In the case of `Cc1nnc(SCc2ccccc2)nc1O`, the “% Inhibition @ 10 uM” value is reported as -3.66% and -7.27%.
